Assay results: the supplement of paper PMC7125110
Variants at the floor of the assay are shown more often than the library holds them.

B1: glmS ribozyme (parent)
chain: AUAAAAGCGCCAGAACUACAGAAAUGUAGUUGACGAGGAGGAGGUUUAUCGAAUUUUCGGCGGAUGCCUCCAAA

How the values were obtained:
Conditions in all cases: with glucosamine-6-phosphate
glucosamine-6-phosphate [1] = variants of: B1; assay: self-cleavage kobs at 640 uM GlcN6P; higher = faster cleavage; RNA array
How it was run: (§1)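 Glucosamine-6-phosphate, from 40 μM to 10 mM in HEPES/KCl/Mg(OAc)2 buffer, was flowed over sequenced MiSeq chips carrying barcoded ribozyme variants transcribed in situ by E. coli RNA polymerase. A hybridised Cy3 probe tracked the variants at 37 °C as tiles were imaged over ~14 h. kobs, kcat and KM were obtained by fitting normalised per-tile medians to exponential decays and then applying weighted Michaelis–Menten fits across concentrations.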

glucosamine-6-phosphate [2] = variants of: B1; assay: self-cleavage kobs at 160 uM GlcN6P; higher = faster cleavage; RNA array
How it was run: as §1

glucosamine-6-phosphate [3] = variants of: B1; assay: self-cleavage kobs at 2500 uM GlcN6P; higher = faster cleavage; RNA array
How it was run: as §1

glucosamine-6-phosphate [4] = variants of: B1; assay: self-cleavage kobs at 10000 uM GlcN6P; higher = faster cleavage; RNA array
How it was run: as §1

| Variant | self-cleavage kobs at 640 uM GlcN6P (glucosamine-6-phosphate [1]) | self-cleavage kobs at 160 uM GlcN6P (glucosamine-6-phosphate [2]) | self-cleavage kobs at 2500 uM GlcN6P (glucosamine-6-phosphate [3]) | self-cleavage kobs at 10000 uM GlcN6P (glucosamine-6-phosphate [4]) |
| --- | --- | --- | --- | --- |
| AUAAAAGCCCCAGAACUACAGAAAUGUAGUUGAUGAGGAGGAGGUUUACCGAAUUUUCGGCGGAGGCCUCCAAA | < 1e-05 s⁻¹ |  |  |  |
| AUAAAAGCCCCAGAACUACAGAAAUGUAGUUGACGAGGAGGAGGUUUUUCGAAUUUUCGGCGGAUGCCUCCAAA | < 1e-05 s⁻¹ | < 1e-05 s⁻¹ | < 1e-05 s⁻¹ |  |
| AUAAAAGCCCCAGAACUACAGAAAUGUAGUUGACGAGGAGGAGGUUUGUCGAAUUUUCGGCGGAUGCCUCCAAA | < 1e-05 s⁻¹ | < 1e-05 s⁻¹ | < 1e-05 s⁻¹ |  |
| AUAAAAGCCCCAGAACUACAGAAAUGUAGUUGACGAGGAGGAGCUUUAUCGAAUUUUCGGCGGAUGCCUCCAAA | < 1e-05 s⁻¹ |  | < 1e-05 s⁻¹ |  |
| AUAAAAGCCCCAGAACUACAGAAAUGUAGUUGACGAGGAGGAGGUUUACCGAAUUUUCGGCGGAUGCCUCCAAA | < 1e-05 s⁻¹ | < 1e-05 s⁻¹ | < 1e-05 s⁻¹ | < 1e-05 s⁻¹ |
| AUAAAAGCCCCAGAACUAAAGAAAUGUAGUCGACGAGGAGGAGGUUUAUCGAAUUUUCGGCGGAUGCCUCCAAA | < 1e-05 s⁻¹ | < 1e-05 s⁻¹ | < 1e-05 s⁻¹ |  |
| AUAAAAGCCCCAGAACUACAGAAAUGUAGUUGACGAGGAGGAGGUUUAUAGAAUUUUCGGUGCAUGCCUCCAAA | < 1e-05 s⁻¹ |  | < 1e-05 s⁻¹ |  |
| AUAAAAGCCCCAGAACUACAGAAAUGUAGUUAACGAGGAGCAGGUUUAUGGAAUUUUCGGCGGAUGCCUUCAAA | < 1e-05 s⁻¹ | < 1e-05 s⁻¹ |  |  |
| AUAAAAGCCCCAGAACUACAGAAAUGUAGUUGACGAGGAGGAGGUUUAUCGAAUUCUCGGCGGAUGCCUCCAAA | < 1e-05 s⁻¹ | < 1e-05 s⁻¹ | < 1e-05 s⁻¹ | < 1e-05 s⁻¹ |
| AUAAAAGCCCCAGAACUACAGAAAUGUAGUUGACGAGAAGGAGGUUUAUCGAAUUUUCGGCGGAUGCCUUCAAA | < 1e-05 s⁻¹ | < 1e-05 s⁻¹ | < 1e-05 s⁻¹ |  |
| AUAAAAGCCCCAGAACUACAGAAAUGUAGUUCACGAGGAGGAGGUUUGUCGAAUUUUCGGCGGAUGCCUCCAAA | < 1e-05 s⁻¹ | < 1e-05 s⁻¹ | < 1e-05 s⁻¹ |  |
| AUAAAAGCCCCAGAACUACAGAAAUGUAGUUGACGAGGAGGAGGUUUAUCGACUUUUCGGCGGAUGCCUUCAAA | < 1e-05 s⁻¹ |  | < 1e-05 s⁻¹ |  |
| AUAAAAGCCACAGAACUACAGAAAUGUAGUUGACGAGGAGGAGGUUUAUCGAAUUUUCGGCGGAUGCCUCCAAA | < 1e-05 s⁻¹ |  | < 1e-05 s⁻¹ | < 1e-05 s⁻¹ |
| AUAAAAGCCCCAGAAGUACAGAAAUGUAGUUGACGAGUAGGAGGUUUAUCGAAUUUUCGGCGGAAGCCUCCAAA | < 1e-05 s⁻¹ |  | < 1e-05 s⁻¹ |  |
| AUAAAAGCCCCAGAACUACAGAAAUGUAGUUGACGAGGAGGAGGUUUAUCGAAUUUUCAGCGGAUGCCUCCAAA | < 1e-05 s⁻¹ | < 1e-05 s⁻¹ | < 1e-05 s⁻¹ |  |
| AUAAAAGCCCCAGAACUACAGAAAUGUAGUUGACGAGGAGGAGGUUUAUCGAAUUUUCGGUGGAUGCCUCCAAA | < 1e-05 s⁻¹ | < 1e-05 s⁻¹ | < 1e-05 s⁻¹ | < 1e-05 s⁻¹ |
| AUAAAAGCUCCAGCACUACAGAAAUGUAGUUGACGAGGAGGAGGUUUAUCGGAUUUUCGGCGGAUGCCUCCAAA | < 1e-05 s⁻¹ |  |  |  |
| AUAAAAGCCCCAGAACUACAGAAAUGUAGUUGACGAGUAGGAGGUUUAUCGAAUUUUCGGCGGAUGCCUCCAAA | < 1e-05 s⁻¹ | < 1e-05 s⁻¹ |  | < 1e-05 s⁻¹ |
| AUAAAAGCCCCAGAACUACAGAAAUGUAGUCGACGAGGAGGAGGUUUAUCGAAUUUUCGGCGGAUGCCUCCAAA | < 1e-05 s⁻¹ | < 1e-05 s⁻¹ | < 1e-05 s⁻¹ | < 1e-05 s⁻¹ |
| AUAAAAGCCCCAGAAUUACAGAAAUGUAGUUCACGAGGAGGAGGUUUAUCGAAUUUUGGGCGGAUACCUCCAAA | < 1e-05 s⁻¹ |  |  |  |
| AUAAAAGCCCCAGAACUACAGAAAUGUAGUCGACGAGGAGGAGGUUUAUCGAAUUUUCGGCGGAUGUCUCCAAA | < 1e-05 s⁻¹ |  | < 1e-05 s⁻¹ |  |
| AUAAAAGCCCCAGAACUACAGAAAUGUAGUAGACGAGGAGGAGUUUUAUCGGAUUUUCGGCGGAUGCCUCCAAA | < 1e-05 s⁻¹ | < 1e-05 s⁻¹ | < 1e-05 s⁻¹ |  |
| AUAAAAGCCCCAGAACUACAGAAAUGUAAUUGACGAGGAGGAGGUUUCUCGAAUUUUCGGCGGAUGCCUCCAAA | < 1e-05 s⁻¹ | < 1e-05 s⁻¹ | < 1e-05 s⁻¹ |  |
| AUAAAAGCCCCAGAACUACAGAAAUGUAAUUUACGAGGAGGAGGUUUAUCGAAUUUACGGCGGAUGCCUCCAAA | < 1e-05 s⁻¹ |  |  |  |
| AUAAAAGCCCCAGAACUACAGAAAUGUAGUUGACGAGGAGGAGGUUUAUCGACUUUUCGGCUGAUGCCUCCAAA | < 1e-05 s⁻¹ | < 1e-05 s⁻¹ | < 1e-05 s⁻¹ | < 1e-05 s⁻¹ |
| AUAAAAGCCCCAGAAGUACAGAAAUGUAGUUGAUGAGGAGGAGGUUUAUCGAAUUUUCGGCGGAUGCCUCCAAA | < 1e-05 s⁻¹ |  |  |  |
| AUAAAAGCCCCAGAAUUACAGAAAUGUAGUUGACGAGGAGGAGGUUCAUCGACCUCUUAGCGGAUGCCUCCAAA | < 1e-05 s⁻¹ |  | < 1e-05 s⁻¹ |  |
| AUAAAAGCCCCAGAACUACAGAAAUGUAGUUGACGAGGAGGAGGUUUAUCGAAUGUUCGGCGGAUGACUCCAAA | < 1e-05 s⁻¹ |  | < 1e-05 s⁻¹ |  |
| AUAAAAGCCCCAGAACUACAGAAAUGUAGUUGACGAGGGUGAGGUUUAUCGAAUUUUCGGCGGAUGCCUCCAAA | < 1e-05 s⁻¹ |  | < 1e-05 s⁻¹ | < 1e-05 s⁻¹ |
